From PMC11320734 (ACS Pharmacology & Translational Science, 2024)

How the values were obtained:
mouse CB2R (mCB2R) [1] = molecular target: T1, mouse CB2R (mCB2R) (Mus musculus, UniProt P47936)
mouse CB2R (mCB2R) [2] = molecular target: T1, mouse CB2R (mCB2R); test: biochemical

T1 sequence (P47936 whole entry): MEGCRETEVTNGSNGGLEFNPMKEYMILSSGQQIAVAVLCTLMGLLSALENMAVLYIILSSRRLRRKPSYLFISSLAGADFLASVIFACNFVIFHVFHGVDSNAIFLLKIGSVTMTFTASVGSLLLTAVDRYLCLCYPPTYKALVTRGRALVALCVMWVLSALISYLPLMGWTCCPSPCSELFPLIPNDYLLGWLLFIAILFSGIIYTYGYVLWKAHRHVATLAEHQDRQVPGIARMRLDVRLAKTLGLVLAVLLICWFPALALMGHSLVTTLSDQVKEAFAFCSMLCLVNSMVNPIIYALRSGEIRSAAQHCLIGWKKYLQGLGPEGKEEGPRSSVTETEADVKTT

| Structure (SMILES) | mCB2R/hCB2R Ki ratio (mouse CB2R (mCB2R) [1]) | inhibition of [3H]-batrachotoxin binding (Na^+ ion channel site 2; 1 μM) [%] | inhibition of [3H]-batrachotoxin binding (Na^+ ion channel site 2; 10 μM) [%] | Ki (mouse CB2R (mCB2R) [2]) [nM] |
| --- | --- | --- | --- | --- |
| Cn1c(C(C)(C)C)cc(=NC(=O)c2cc(C(F)(F)F)ccc2OCC(C)(C)O)n1CC1CCC1 [RNB-61] | 2.3 | 32 | 96 |  |
| COCCOCCc1cc(NC(=O)C(C)(C)S(=O)(=O)C2CCOCC2)on1 [RNB-70] | 14.8 |  |  | 266 ± 68.9 |
| N#Cc1cc(NC(=O)CCc2nc(-c3ccc(F)cc3Cl)no2)cnc1CC(F)(F)F [RNB-73] | 0.56 |  |  |  |
| CC(C)(Oc1ccc(C(F)(F)F)cn1)C(=O)Cc1cc(C(C)(C)C)no1 [RNB-90] | 3.9 |  |  |  |

Read-outs that look alike come from different tables or passages of the source.
